Data from article PMC4336329 (PLoS ONE, 2015).
Among all 310,000 compounds or so, about 14,000 (4.5%) showed an effect of 50% or more. The effect is printed as a negative number. The list shows a part of the results.

What follows are compounds tested against human ether-à-go-go-related gene (hERG) potassium channel (human, UniProt Q12809) (assay: primary screen, population patch clamp on CHO cells stably expressing hERG).
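Note: peak tail current of the secondary pulse compared with the same well before compound.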

Chain of human ether-à-go-go-related gene (hERG) potassium channel (Q12809 whole entry, looked up): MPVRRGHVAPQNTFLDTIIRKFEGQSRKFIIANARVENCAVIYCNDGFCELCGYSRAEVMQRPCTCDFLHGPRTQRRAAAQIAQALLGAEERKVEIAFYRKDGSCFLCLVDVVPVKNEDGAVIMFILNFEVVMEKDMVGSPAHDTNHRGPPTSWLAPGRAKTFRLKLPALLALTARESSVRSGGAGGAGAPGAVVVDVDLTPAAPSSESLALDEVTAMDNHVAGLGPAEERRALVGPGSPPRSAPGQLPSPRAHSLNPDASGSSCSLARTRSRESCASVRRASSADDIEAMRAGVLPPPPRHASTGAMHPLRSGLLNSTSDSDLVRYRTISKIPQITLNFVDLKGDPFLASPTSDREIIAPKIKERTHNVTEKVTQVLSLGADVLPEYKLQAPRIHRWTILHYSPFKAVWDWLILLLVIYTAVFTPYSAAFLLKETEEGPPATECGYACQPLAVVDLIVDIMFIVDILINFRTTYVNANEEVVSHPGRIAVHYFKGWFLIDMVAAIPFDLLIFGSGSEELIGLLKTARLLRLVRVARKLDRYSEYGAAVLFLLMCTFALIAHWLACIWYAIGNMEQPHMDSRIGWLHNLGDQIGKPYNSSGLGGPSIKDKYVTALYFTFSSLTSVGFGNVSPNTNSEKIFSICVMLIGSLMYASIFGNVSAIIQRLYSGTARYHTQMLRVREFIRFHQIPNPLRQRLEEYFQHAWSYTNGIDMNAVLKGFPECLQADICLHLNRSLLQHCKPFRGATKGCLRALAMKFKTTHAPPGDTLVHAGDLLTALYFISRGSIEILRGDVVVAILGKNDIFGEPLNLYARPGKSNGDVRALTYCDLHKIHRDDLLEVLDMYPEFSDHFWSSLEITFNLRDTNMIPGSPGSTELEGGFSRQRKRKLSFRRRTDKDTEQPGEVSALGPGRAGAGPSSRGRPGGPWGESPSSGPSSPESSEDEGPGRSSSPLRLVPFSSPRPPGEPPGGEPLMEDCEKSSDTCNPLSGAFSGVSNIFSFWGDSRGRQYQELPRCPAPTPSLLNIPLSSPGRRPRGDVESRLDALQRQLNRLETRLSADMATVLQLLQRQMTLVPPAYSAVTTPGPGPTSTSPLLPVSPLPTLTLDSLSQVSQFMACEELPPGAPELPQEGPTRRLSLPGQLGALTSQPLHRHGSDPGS

Compound | hERG current change (%, negative = inhibition) at 10uM
O=C(CN1C(=O)S/C(=C\c2ccccc2)C1=O)NCCCn1ccnc1 | -23.4%
CCCCc1ccc(NC(=S)NCCN2CCOCC2)cc1 | -39%
CSc1ccccc1C(=O)NCCSc1ccccc1 | -12.2%
O=C(CNC(=O)c1cccc(Br)c1)N/N=C/c1ccc[nH]1 | 22.5%
Clc1ccccc1CN1CCN(/N=C/C=C/c2ccco2)CC1 | 5.7%
OCCN1CCN(CCCN2c3ccccc3Sc3ccc(Cl)cc32)CC1 | -49.3%
COc1cccc(CNc2ccc(C)c(Cl)c2)c1 | 24.8%
Cc1c(C(=O)N(Cc2nccn2C)C(C)C)oc2c(F)cccc12 | -22.3%
COc1cc2c(cc1OC)CN(CC(=O)Nc1ccc(Cl)cc1Cl)CC2 | -11.7%
N#CCCN(C(=O)COC(=O)c1cc(=O)c2ccccc2o1)c1ccccc1 | 5.03%
CCCCNC(=O)O[C@H]1C[C@@H]2CCN3C(=O)CCC(C)(C)[C@H](C1)[C@H]23 | -23.5%
COc1cc(/C=N/n2cnc3c(sc4nc(C)cc(C)c43)c2=O)ccc1O | 13.5%
Brc1cccc(-c2nnco2)c1 | 2.43%
Cc1ccc(NC(=O)Cn2c(=O)oc3ccccc32)c(C)c1 | 16.1%
O=C1CCCN1CCCNc1ccc(S(=O)(=O)N2CCCCC2)cn1 | -8.92%
COc1cc(NC(=O)COC(C)=O)c(C)cc1[N+](=O)[O-] | 24%
O=C1NC(Cc2c[nH]c3ccccc23)C(=O)N1Cc1cccc2ccccc12 (centres unmarked) | 11.4%
COc1ccc(NC(=O)N(Cc2cccnc2)Cc2ccccc2Cl)c(OC)c1 | -25.1%
CCOc1cc(/C=C/C(=O)N(CC)CC(=O)NCc2cccs2)cc(Cl)c1OC | -27.7%
O=C(NC(Cc1ccccc1)C(=O)O)C1CCN(S(=O)(=O)c2ccccc2C(F)(F)F)CC1 (centres unmarked) | 17.3%
O=C(Nc1ccc2c(c1)oc1ccccc12)c1cccnc1 | 14.1%
CN(c1cccc(NC(=O)c2ccccc2N(Cc2ccccc2)S(C)(=O)=O)c1)S(C)(=O)=O | 5.32%
CN1CCN(C(=O)COc2ccc(Oc3ccccc3)cc2)CC1 | -15.2%

Compound | hERG current change (%, negative = inhibition) at 10uM
O=C1N(Cc2cccnc2)C[C@@H]2C[C@@H](c3ccc(C(F)(F)F)cc3)N3CCC[C@@]123 | -53.9%
COc1ccc(-c2nnc(NC(=O)C3=COCCO3)o2)cc1 | 7.85%
Cc1ccc(C(=O)N2CCN(c3ccccc3)CC2)cc1S(=O)(=O)N1CCOCC1 | -16.5%
CCCOc1ccc(CNC(=O)Cn2ncc3ccccc32)cc1 | -16.5%
C/[N+]([O-])=C\c1cccc(OCCN2CCN(c3ncc(C(F)(F)F)cc3Cl)CC2)c1 | -25.9%
O=C(NC(NCC1CCCO1)C(Cl)(Cl)Cl)c1cccc2ccccc12 (centres unmarked) | -18.8%
Cc1csc(SCC(=O)Nc2cccc(S(=O)(=O)N3CCOCC3)c2)n1 | -6.13%
COc1cc(NC(=S)Nc2cccnc2)cc(OC)c1 | 6.54%
CCc1nn(CCCC(=O)NCc2ccccc2C)c(=O)c2cc3occc3n12 | -12.5%
CN1CCc2cc(Cl)c(O)cc2[C@@H](c2ccccc2)C1.Cl | -56%
COc1cc(OC)c(C2N(c3ccccn3)C(=O)C3CCCN32)cc1OC (centres unmarked) | 13.8%
COc1ccc(NC(=O)CSC2CCCCC2)cc1 | -18.4%
CCC(CC)NC(=O)Nc1ccc(C)cc1 | 16.3%
O=C(N/C(=C/c1ccco1)C(=O)N1CCc2ccccc21)c1ccco1 | -13%
CC12CCC(C(=O)Nc3cc(F)ccc3F)(CC1=O)C2(C)C (centres unmarked) | -5.84%
COc1ccccc1-c1ccc(NC2CCCCC2)nn1 | -45.9%
Cc1ccc(CSc2nc3sc(C)c(C)c3c(=O)n2Cc2ccco2)cc1 | -6.19%
O=C(CN(CC1CCCO1)C(=O)CNS(=O)(=O)c1ccc(Cl)cc1)NC1CCCC1 (centres unmarked) | 6.73%
Cc1c(C(=O)NCc2ccc3c(c2)OCO3)oc2ccc(S(=O)(=O)N3CCCCC3)cc12 | -2.63%
CCN(Cc1ccccc1)C(=O)CC1Oc2ccccc2NC1=O (centres unmarked) | -9.35%
S=C(Nc1ccccc1Cl)N(CCCN1CCOCC1)Cc1ccccn1 | -14.2%
C=CCn1c(O)c(/C=N/N2CCCCC2c2cccnc2)c(=O)[nH]c1=S (centres unmarked) | -35%
COc1ccc(/C=N/NC(=O)CCc2c(C)n[nH]c2C)cc1O | -0.362%

Compound | hERG current change (%, negative = inhibition) at 10uM
Cc1ccc(-c2nnc(NC(=O)C3=COCCO3)o2)c(C)c1 | -7.08%
CNC(=S)NNC(=O)Cc1ccc(OC)cc1 | 13.8%
Cc1ccc(S(=O)(=O)NC2c3cccc4cccc(c34)C2Sc2nncn2C)cc1 (centres unmarked) | 16.4%
COc1ccc(OC)c(NC(=O)C2CCN(C(=O)C3CC(=O)N(c4ccc(C)cc4)C3)CC2)c1 (centres unmarked) | -37.7%
O=C(CSc1ncnc2c1sc1ccccc12)Nc1ccc(Br)cc1 | 6.27%
O=C(C1=COCCO1)N1CCN(S(=O)(=O)c2cccc(F)c2)CC1 | 11.7%
O=C(C1CCN(S(=O)(=O)c2ccccc2)CC1)N1CCC1 | 12.3%
C=CCNC(=O)c1csc(-c2ccccc2)n1 | -24.3%
O=c1[nH]c2ccc(Cl)cc2c(-c2ccccc2)c1SC(=S)N1CCCCC1 | 11.4%
COC(=O)C(C#N)c1nc2ccccc2nc1N1CCCC1 (centres unmarked) | -0.357%
COC(=O)CNC(=O)CNC(=O)c1nn(-c2ccc(OC)c(OC)c2)c(=O)c2ccccc12 | 18.1%
COc1ccc(-n2nc(C(=O)NCC(=O)NC3CCCCC3)c3ccccc3c2=O)cc1 | 11%
Cc1nc2ccc(NS(=O)(=O)c3ccccc3F)cc2s1 | 0.277%
CC(C)CCNC(=O)c1onc(CSc2ccc(F)cc2)c1C(=O)NCCC(C)C | 5.82%
CN(C)S(=O)(=O)n1cc(/C=C(\NC(=O)c2ccccc2F)C(=O)N2CCOCC2)c2ccccc21 | 18.5%
COc1ccc(CCN2C(=O)NC(NC(=O)CC(C)C)(C(F)(F)F)C2=O)cc1OC (centres unmarked) | 18.9%
CC(=O)CCC1CC(c2ccc(Cl)cc2)=NO1 (centres unmarked) | -7.96%
CC1=C(C(=O)Nc2ccccc2)C(c2ccccn2)n2ncnc2N1 (centres unmarked) | 6.45%
Oc1ccccc1N=N/C(=N/Nc1ccccc1O)c1ccccc1 | 8.83%
COc1ccc(OC)c(CNCCc2ccc(OC)c(OC)c2)c1.O=C(O)C(=O)O | 5.38%
O=C(COC(=O)CNC(=O)c1cccc([N+](=O)[O-])c1)Nc1nc2ccccc2s1 | -4.12%
Cc1ccccc1-n1cc(CNC(=O)CCc2nnc(CCc3ccccc3)o2)cn1 | -12.2%
Cc1ccc(S(=O)(=O)NC(Cc2c[nH]c3ccccc23)C(=O)O)cc1 (centres unmarked) | -0.633%

Compound | hERG current change (%, negative = inhibition) at 10uM
Cc1ccc(Nc2nc(C(=O)N3CCC(C(=O)NC(C)C)CC3)cs2)cc1 | 2.44%
Nc1cc(=O)[nH]c(SCC(=O)NNC(=O)c2ccccc2)n1 | 22.3%
Cc1c(Cl)cccc1NC(=S)N1CCc2ccccc2C1 | 10.4%
O=C(CSc1nnc(CCCO)n1-c1ccccc1)Nc1nccs1 | 0.786%
COc1ccc(C2SCC(=O)N2CC23CC4CC(CC(C4)C2)C3)cc1 (centres unmarked) | 3.15%
Cc1ccc(CN2CCCN(Cc3c(F)cccc3Cl)S2(=O)=O)cc1 | 18.2%
CCc1ccc(C(=O)Nc2nnn(CC)n2)cc1 | -4.13%
Cc1cc(C)cc(C(=O)N2CCC(C(N)=O)CC2)c1 | 2.24%
Cc1cccc(NC(=O)N2CCN(Cc3ccc4c(c3)OCO4)CC2)c1C | 12.4%
COC(=O)c1cc(-c2ccc(OC)c(OC)c2)n[nH]1 | 14.4%
Cc1c(Cl)ccc(S(=O)(=O)NCCN2CCOCC2)c1Cl | -12%
COc1ccc(CC(=O)OCC(=O)Nc2cccc(Br)c2)cc1 | -6.54%
CCN1CCN(C2CCCCC2NS(=O)(=O)c2ccccc2)CC1 (centres unmarked) | 11.7%
CC(C)[C@H](NC(=O)Cc1ccccc1)C(=O)OCc1cc(=O)n2c(n1)sc1ccccc12 | 4.62%
COc1ccccc1NS(=O)(=O)c1ccc(C(=O)Nc2ncccc2O)cc1 | 0.815%
O=C(NCc1cccnc1)c1cc(-c2cccs2)on1 | -29.9%
O=C(Nc1nccs1)c1ccc(-c2cccc([N+](=O)[O-])c2)o1 | 13.8%
Cn1c(-c2ccc(F)cc2)cnc1NCc1cccc(F)c1 | -46%
Cc1ccc(-c2nc(N/N=C/c3cccnc3)c3ccccc3n2)cc1 | -3.51%
CC(C(=O)Nc1ccccc1Br)N1c2cccc3cccc(c23)S1(=O)=O (centres unmarked) | 10.4%
